Self-cleavage data for 41 variants are collected here from the RNAGym collection of RNA variant scans (doi:10.7554/elife.90254).

B1: OR4K15 (parent)
chain: GUUAACGGUCAUAGGCCAUGGAAACUAGGAGCACCAUUUCGCUGCCAGUGAAGAAAUGAACAAAGAAAAUCUGGGCCAGGCAGGCAUCAAAAGAAAUAGUCUUGCGCUCAACCAGAAAGUCUGUAAUCAUUUUAAGGGUA

The source gives no read counts; variants with many changes may rest on few reads.

The variants in the data set derive from B1. Nature of the data set: self-cleavage, relative activity (ratio to wild type); higher = more cleavage; in vitro, sequencing; the parent is a self-cleaving ribozyme.
For the variant GUUAACGGACAUAGGCCAUGGAAACUAGGAGCACCAUUUCGCUGCCAGUGAAGAAAUGAACAAAGAAAAUCUGGGCCAGGCAGGCAACAAAAGAAAUAGUCUUGCGCUCAACCAGAAAGUCCGUAAUCAUUUUAAGGGUA, the self-cleavage was determined as 0.68.

With GUUAACGGCCAUAGGCCAUGGGAACUAGGAGCACCAUUUCGCUGCCAGUGAAGAAAUGAGCAAAGAAAAUCUGGGCCAGGCAGGCAUCAAAAGAAAUAGUCUUGCGCUCAUCCAGAAAGUCUGUAAUCAUUUUAAGGGUA, the self-cleavage was found to be 0.17. The result for GUUAACGGCCAUAGGCCGUGGAAACUAGGAGCACCAUUUCGCUGCCAGUGAAGAAAUGAACAAAGAAAAUCUGGGCCAGGCAGGCAUCAAAAGAAGUAGUCUUGCGCUCAACCAGAAAGUCUGUAAUCAUUUUAAGGGUA reads 1.83; that for GUUAACGGCCGUAGGCCAUGGAAACUAGGAGCACCAUUUCGCUGCCAGAGAAGAAAUGAACAAAGAAAGUCUGGGCCAGGCAGGCAUCAAAAGAAAUAGUCCUGCGCUCAACCAGAAAGUCUGUAAUCAUUUUAAGGGUA, 1.22.

GUUAACGGCCAUAGGCCAUGGGAACUAGGAGCACCAUUUCGCUGCCAGUGAAGAAAUGAACAAAGAGAAUCUGGGCCAGGCAGGCAUCAAAAGAAAUAGUCUUGCGCCCAACCAGAAAGUCUGUAAUCAUUUUAAGGGUA: the self-cleavage worked out at 0.07. Consider GUUAACGGCCAUAGGCCAUGGGAACUAGGAGCACCAUUUCGCUGCCAGUGAAGAAAUGAACAAAGAAAAUCUGGGCCAGGCAGGCAUCAAAAGAAAUAGUCUUGCGCUCAACCAGAAAGUCUGUAACCAUUUUAAGGGUA, for which the self-cleavage turned out to be 1.05. For GUUAACGGCCAUAGGCCAUGGGAACUAGGAGCACCAUUUCGCUGCCAGUGAAGAAAUGAACAAAGAAAAUCUGGGCCAGGCAGGCAUCAAAAGAAAUAGUCUUGCGCUCAGCCUGAAAGUCUGUAAUCAUUCUAAGGGUA, the self-cleavage is 0.04. On to GUUAACGGCCAUAGGCCAUGGGAACUAGGAGCACCAUUUCGCUGCCAGUGAAGAAAUGAACAGAGAAAAUCUGGGCCAGGCAGGCAUCAAAGGAAAUAGUCUUGCGCUCAACCAGAAAGUCUGUAAUCAUUUUAAGGGUA, for which the self-cleavage worked out at 1.64.

With GUUAACGGCCAUAGGCCCUGGAAACUAGGAGCACCAUUUCGCUGCCAGUGAAGAAAUGAACAAAGAAAAUCUGGGCCAGGCGGGCAUCAAAAGAAAUAGUCUUGCGCUCAACCGGAAAGUCUGUAAUCAUUUUAAGGGUA, the self-cleavage was 0.09. Turning to GUUAACGGCCGUAGGCCAUGGAAACUAGGAGCACCAUUUCGCUGCCAGUGAAGAAAUGAACAAAGAAAAUCUGGGCCAGGCAGGCAUCAAAAGAAAUAGUCUUGCGCUCAUCCAGAAAGUCUGUAAUCAUUUUAAGGGUA, the self-cleavage came to 0.04. As to GUUAACGGCCAUAGGCCUUGGAAACUAGGAGCACCAUUUCGCUGCCAGUGAAGAAAUGAACAAAGAAAAUCCGGGCCAGGCAGGCAUCAAAAGAAAUAGUCUUGCGCUCAACCAGAAAGUCUGUAAUCAUUUUAAGGGUA, the self-cleavage was 0.31.

Turning to GUUAACGGACAUAGGCCAUGGAAACUAGGAGCACCAUUUCGCCGCCCGUGAAGAAAUGAACAAAGAAAAUCUGGGCCAGGCAGGCAUCAAAAGAAAUAGUCUAGCGCUCAGCCAGAAAGUCUGUAAUCAUUUUAAGGGUA, the self-cleavage worked out at 0.02. On to GUUAACGGCCGUAGGCCAUGGAAACUAGGAGCACCAUUUCGCUGCCAGUGAAGAAAUGAACAAAGAAAAUCAGGGCCAGGCAGGCAUCAAAAGAAAUAGUCUUGCGCUCAACCAGAAAGUCUGUAAUCAUUUUAAGGGUA, for which the self-cleavage stood at 0.74.

Regarding GUUAACGGACAUAGGCCAUGGAAACUAGGAGCACCAUUUCGCUGCCAGGGAGGAAAUGAACAAAGAAAAUCUGGGCCAGGCAGGCAUCAAAAGAAAUAGUCUUGCGCUCAACCAGAAAGUCUGUAAUCAUUUUAAGGGUA, the self-cleavage amounted to 0.97. Regarding GUUAACGGCCUUAGGCCAUGGAAACUAGGAGCACCAUUUCGCUGCCAGUGAAGAAAUGAACAAAGAAAAUCUGGGCCAGGCAGGCAUCAAAAGAAAUAGUCUUGCGCUCAACCAGAAAGUCCGUAAUCAUUUUAAGGGUA, the self-cleavage was 0.96. Take GUUAACGGCCAUAGGCCUUGGGAACUAGGAGCACCAUUUCGCUGCCAGUGAAGAAAUGAACAAAGAAAAUCUGGGCCAGGCAGGCAUCAAAAGAAAUAGUCAUGCGCUCAACCAGAAAGUCUGUAAUCAUUUUAAGGGUA: the self-cleavage amounted to 0.87. Turning to GUUAACGGCCAUAGGCCGUGGAAACUAGGAGCACCAUUUCGCUGCCAGUGAAGAAAUGAACAAAGUAAAUCUGGGCCAGGCAGGCAUCAUAAGAAGUAGUCUUGCGCUCAACCAGAAAGUCUGUAAUCAUUUUAAGGGUA, the self-cleavage worked out at 0.9. GUUAACGGCCUUGGGCCAUGGAAACUAGGAGCACCAUUUCGCUGCCAGUGAAGAAAUGGACAAAGAAAAUCUGGGCCAGGCAGGCGUCAAAAGAAAUAGUCUUGCGCUCAACCAGAAAGUCUGUAACCAUUUUAAGGGUA: the self-cleavage stood at 1.14. As to GUUAACGGACAUAGGCCAUGGAAACUAGGAGCACCAUUUCGCUGCCAGUGAAGAAAUGAACAAAGAAAAUCUGGGCCAGGCAGGCAUCAAAAGAAAUAGUCUUGCGCUCAACCAGAAAGUCUGCAAUCAUUUUAAGGGUG, the self-cleavage came to 0.72.

Regarding GUUAACGGCCAUGGGCCAUGGAAACUAGGAGCACCAUUUCGCUGCCAGUGAAGAAAUGAACAAAGAAAAUCUGGGCCUGGCAGGCAUCAAAAGAAAUAGUCUUGCGCUCAACCAGAAAGUCUGUAAUCAUUUUAAGGGUA, the self-cleavage is 0.39. Consider GUUAACGGCCGUAGGCCAUGGAGACUAGGAGCACCAUUUCGCUGCCAGUGAAGGAAUGAACAAAGAGAAUCUGGGCCAGGCAGGCAUCAAAAGAAAUAGUCUUGCGCUCAACCAGAAAGUCUGUAAUCAUUUUAAGGGUA, for which the self-cleavage came to 1.17. Turning to GUUAACGGCCGUAGGCCAUGGCAACUAGGAGCACCAUUUCGCUGCCAGUGAUGAAAUGAACAAAGAAAAUCUGGGCCAGGCAGGCAUCAAAAGAAAUAGUCUUGCGCUCAACCAGAAAGUCUGUAAUCAUUUUAAGGGUA, the self-cleavage was determined as 1.39. Regarding GUUAACGGACAUAGGCCAUGGAAACUAGGAGCACCAUUUCGCUGCCAGCGAAGAAAUGAACAAAGAAAAUCUGGGCCAGGCAGGCAUCAAAAGAAAUAGUCUUGCGUUCAACCAGAAAGUCUGUAAUCAUUUUAAGGGUA, the self-cleavage turned out to be 0. In the case of GUUAACGGCCAUAGGCCUUGGAACCUAGGAGCACCAUUUCGCUGCCAGUGAAGAAUUGAACAAAGAAAAUCUGGGACAGGCAGGCAUCGAAAGGAAUAGUCUUGCGCUCAACCAGAAAGUCUGUAAUCAUUUUAAGGGUA, the self-cleavage was found to be 0.13. As to GUUAACGGCCGUAGGCCAUGGAAACUAGGAGCACCAUUCCGCUGCCAGUGAAGAAAUGAACAAAGAAAAUCUGGGCCAGGCAGGCAUCAAAAGAAAUAGUCUUGCGCUCAGCCAGGAAGUCUGUAAUCAUUUUAAGGGUA, the self-cleavage came out at 0.04. On to GUUAACGGCCGUAGGCCAUGGAAACUAGGAGCUCCAUUUCGCUGCCAGUGAAGAAAUGAACAAAGAAAAUCUGGGCCAGGCAGGCAUCAAAAGAAAUAGUCUUGCGCUCAACCAGAAAGUCCGUAAUCAUUUUAAGGGUA, for which the self-cleavage came to 0.85.

For the variant GUUAACGGCCAUGGGCCAUGGAAACUAGGAGCACCAUUUCGCUGCCAGUGAAGAAAUGAACAAAGAAAAUCUGGGCCAGGCAGGCAUCAAAAGAAAUAGUCUUGCGCUCAACCAGAAAGUCUGUUAUCAUUUUAAGGGUA, the self-cleavage worked out at 1.78. The result for GUUAACGGACAUAGGCCAUGGAAACUAGGAGCACCAUUUCGCUGCCAGCGAAGAAAUGAACAAAGAAAAUCUGGGCCAGGCAGGCGUCAAAAGAAAUAGUCUUGCGCUCAACCAGAAAGUCUGUAAUCAUUUUAAGGGUA reads 1.07. In the case of GUUAACGGACAUAGGCCAUGGAAACUAGGAGCACCAUUUCGCCGCCAGUGAAGAGAUGAACAGAGAAAAUCUGGGCCAGGCAGGCAUCAAAGGAAAUAGUCUUGCGCACACCCAGAAAGUCUGUAAUCAUUUUAAGGGUA, the self-cleavage was determined as 0.01. With GUUAACGGCCGUAGGCCAUGGAGACUAGGAGCACCACUUCGCUGCCAGUGAAGAAAUGAACAAAGAAAAUCUGGGCCAGGCAGGCAUCAAAAGAAAUAGUCUUGCGCUCAACCAGCAAGUCUGUAAUCAUUUUAAGGGUA, the self-cleavage was found to be 0.19. In the case of GUUAACGGCCCUAGGCCAUGGAAACUAGGAGCACCAUUUCGCUGCCAGUGAAGGAAUGAACAAAGAAAAUCUGGGCCAGACAGGCAUCAGAAGAAAUAGUCUUGCGCUCAACCAGAAAGUCUGUAAUCAUUUUAAGGGUA, the self-cleavage was found to be 0.32. In the case of GUUAACGGCCAUGGGCCAUGGGAACUAGGAGCACCAUUUCGCUGCCAGCGUAGAAAUGAACAAAGAAAAUCUGGGCCAGGCAGGCAUCACAAGAAAUAGUCUUGCGCCCAACCAGAAAGUCUGUAAUCAUUUUAAGGGUA, the self-cleavage came out at 0.06. Turning to GUUAACGGCCAUGGGCCAUGGAAGCUAGGAGCACCAUUUCGCUGCCAGUGAAGAAAUGAACAAAGAAAAUCUAGGCCAGGCAGGCAUCAAGAGAAAUAGUCUUGCGCUCAACCAGAAAGUCUGUAAUCAUUUUAAGGGUU, the self-cleavage was 0.26. To GUUAACGGCCAUAGGCCGUGGGAACUAGGAGCACCAUUUCGCUGCCAGUGAAGAAAUGAACAAAGAGAAUCUGGGCCAGGCAGGCAUCAAAAGAAAUAGUCUUGCGCUCAACCAGGAAGUCUGUAGUCAUUUUAAGGGUA belongs 0.55; to GUUAACGGACAUAGGCCAUGGAAACUAGGAGCACCAUUUCGCUGCCAGUGAAGAAAUGAACAAAGAAAAUCUGGGCCAGGCAGGCAUCAAAAGAAAUAGUCUUGCGCUCAACCAGAAAGUCCGUAAUCGUUUUAAGGGUA, 0.58. Take GUUAACGGCCUUAGGCCAUGGAAACUAGGAGCACCAUUUCGCUGCCAGUGAAGAAAUGAACAAAGGAGAUCUGGGCCAGGCAGGCAUCAAUUGAAAUAGUCUUGCGCUCAACCAGAAAGUCUGUAAUCAUUUUAAGGGUA: the self-cleavage was found to be 1.06.

Take GUUAACGGCCUUAGGCCAUGGAAACUGGGAGCACCAUUUCGCUGCCAGUGAAGAAAUGAACAAAGAAAAUCUGGGCCAGGCAGGCAUCAAAAGAGAUAGUCUUGCGCUCAACCAGAAAGUCUGUAAUCAUUUUAAGGGUA: the self-cleavage was 1.82. For the variant GUUAACGGACAUAGGCCAUGGAAACUAGGAGCACCAUUCCGCUGCCAGUGAAGAAAUGAACAAAGAAAGUCUGGGCCAGGCAGGCAUCAAAAGAAAUAGUCUUGCGCUCAACCAGAAAGUCUGUAAUCAUUUUAAGGGUA, the self-cleavage was found to be 0.76.

Regarding GUUAACGGACAUAGGCCAUGGAAACUAGGAGCACCAUUUCGCUGCCAGUGAAGAAAUGAACAAAGAAAAUCUGGGCCAGGCAGGCAUCAAAAGAAAUAGUCUUGCGCUCAACCAGAAAGUCCGUAAUCAUUAUAAGGGUA, the self-cleavage is 0.84. Turning to GUUAACGGCCAUAGGCCUUGGAGACUAGGAGCACCAUUUCGCUGCCAGUGAAGAAAUGAACAAAGGAAAUCUGGGCCAGGCAGGCAUCAAAAGAAAUAGUCUUGCACUCAACCAGAAAGUCUGUAAUCAUUUUAAGGGUA, the self-cleavage is 0. To GUUAACGGCCAUGGGCCAUGGAAACUAGGAGCACCUUUUCGCUGCCAGUGUAGAAAUGAACAAAGAAAAUCUGGGCCAGGCAGGCAUCAAAAGAAAUAGUCAUGCGCUCUACCAGAAAGUCUGUAAUCAUUUUAAGGGUA belongs 1.19.
